# Source: paper PMC6919601, “Identification of Plasmodium dipeptidyl aminopeptidase allosteric inhibitors by high throughput screening” (PLoS ONE, 2019)
# Out of some 110,000 compounds screened, about 230 (0.21%) showed an effect of 50% or more. The list shows a part of the results.
# Molecular target: DPAP1 (Plasmodium falciparum, UniProt Q8IIJ9)
# Test: primary screen, percent inhibition; read by cleavage of a fluorogenic dipeptide substrate; higher = more effect of the substance
# Parameters: species or system P. falciparum D10 trophozoite lysates; single well
# 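Also: 30 min substrate incubation versus DMSO and 10 µM JCP410 controls.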
# Sequence of DPAP1 (Q8IIJ9 whole entry, looked up): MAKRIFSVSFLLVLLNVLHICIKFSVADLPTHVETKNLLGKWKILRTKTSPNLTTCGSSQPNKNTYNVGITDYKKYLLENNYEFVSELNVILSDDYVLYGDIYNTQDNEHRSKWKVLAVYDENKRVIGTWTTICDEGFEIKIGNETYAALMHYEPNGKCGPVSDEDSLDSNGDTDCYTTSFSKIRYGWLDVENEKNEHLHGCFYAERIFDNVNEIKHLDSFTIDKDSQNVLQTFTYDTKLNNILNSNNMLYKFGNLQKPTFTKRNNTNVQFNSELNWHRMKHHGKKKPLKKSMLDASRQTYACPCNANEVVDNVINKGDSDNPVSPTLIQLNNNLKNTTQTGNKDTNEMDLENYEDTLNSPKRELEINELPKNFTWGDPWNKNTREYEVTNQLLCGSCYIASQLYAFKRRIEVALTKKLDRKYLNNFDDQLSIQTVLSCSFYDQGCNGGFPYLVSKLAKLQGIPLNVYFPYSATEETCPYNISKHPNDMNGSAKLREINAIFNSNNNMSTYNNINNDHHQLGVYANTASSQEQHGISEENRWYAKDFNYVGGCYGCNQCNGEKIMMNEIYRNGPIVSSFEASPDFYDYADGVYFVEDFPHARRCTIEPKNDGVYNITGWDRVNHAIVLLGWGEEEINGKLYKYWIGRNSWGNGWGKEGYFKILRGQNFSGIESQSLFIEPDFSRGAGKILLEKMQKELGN
row,SMILES,% Inhibition @ 10 uM [%]
1,CC(C)CC(NC(=O)c1cccc(NC(=O)NCc2cccnc2)c1)C(=O)NCC#N (stereo not drawn),-7.36
2,CC(Oc1ccc(C(=O)NCc2ccccc2)cc1)C(=O)O (stereo not drawn),0.163
3,CC(c1ccccc1)n1c(=O)ccn(CCOc2ccc(Cl)cc2)c1=O (stereo not drawn),0.883
4,CN1C/C(=C\c2ccc3c(c2)OCO3)C(=O)/C(=C/c2ccc3c(c2)OCO3)C1,1.42
5,O=C(O)c1ccc(N2C(=O)CC(N3CCC(Cc4ccccc4)CC3)C2=O)cc1 (stereo not drawn),3.24
6,O=C(NCc1ccco1)C1CC(=O)N(CCc2ccccc2)C1 (stereo not drawn),-1.79
7,CC1CCc2cc(F)ccc2N1C(=O)c1cnn(C)c1 (stereo not drawn),-3.04
8,CCN(CC)CCCNC(=O)C1CCCN(c2nn3c(=O)cc(C)nc3s2)C1 (stereo not drawn),-0.281
9,Cc1ccccc1OCC(=O)Nc1nn2c(-c3ccco3)nnc2s1,-2.79
10,CC(C)Sc1nn2c(=O)cc(CSc3nnc(N)s3)nc2s1,-3.95
11,Cc1ccc(C)n1-c1ccc(Oc2ccc(-n3c(C)ccc3C)cc2)cc1,-4.06
12,Nc1ccc(O)c2c1C(=O)c1c(O)ccc(N)c1C2=O,-7.25
13,CCC(C)NCc1c(C(=O)O)n(Cc2cccc(C)c2)c2ccccc12 (stereo not drawn),3.54
14,O=C(COc1ccccc1)NCCc1nc2ccccc2[nH]1,-5.38
15,CCC1(CC)C(=O)N(C)C(=O)N=C1N(C)C,1.9
16,CC(C)C[C@H](NC(=O)c1c(F)ccc(F)c1F)C(=O)NCC#N,-3.04
17,CN(c1ccccc1C(=O)NC(C)(C)C)S(C)(=O)=O,-8.41
18,Cc1ccc(S(=O)(=O)CC(Cn2nc(Cl)nc2Cl)n2nc(Cl)nc2Cl)cc1 (stereo not drawn),0.147
19,Cc1ccc(NC(=O)C2CC2)c(NC(=O)C2CC2)c1,0.777
20,Cc1cc(C(=O)NCc2ccc3c(c2)OCO3)c2c(C)nn(-c3ccccc3)c2n1,-1.3
21,O=C(O)C1C2CCC(C2)C1C(=O)Nc1cc(F)ccc1F (stereo not drawn),-5.98
22,CCSC1=C(C#N)C(c2ccc(O)cc2)C(C(=O)Nc2ccccc2)=C(C)N1 (stereo not drawn),7.11
23,O=C(O)[C@@H]1CSC(c2cccc([N+](=O)[O-])c2)N1 (stereo partly drawn),-2.51
24,COc1ccc(C(=O)NCc2nnc(SCC(=O)NCc3ccco3)o2)cc1,6.1
25,Clc1ccc(OCCCCCN2CCCC2)cc1,6.14

row,SMILES,% Inhibition @ 10 uM [%]
1,CCOC(=O)C1=C(C)OC(N)=C(C#N)C12C(=O)Nc1ccc(Br)cc12 (stereo not drawn),-0.233
2,CCOc1nc(N2CCCCC2)nc(-n2cc(-c3ccccc3)nn2)n1,4.32
3,CCc1nn(C(C)C(=O)NCCCN(C)Cc2ccccc2)c(=O)c2cc3occc3n12 (stereo not drawn),-0.281
4,COc1ccc(-c2noc(CNC3CCCCC3)n2)cc1OC,1.38
5,Cc1c(Cl)cccc1-c1ccc(CNCCNC(=O)c2nonc2N)o1,-3.49
6,O=C(C1=C(O)C(=O)N(CCCn2ccnc2)C1c1ccccn1)c1ccccc1 (stereo not drawn),-1.36
7,Cc1nn(CC(=O)NC(C)c2ccc3c(c2)OCCO3)c(=O)c2cccn12 (stereo not drawn),-11.1
8,N#CC1=C(N)OC2=C(C(=O)CC(c3cccs3)C2)C1c1ccccc1 (stereo not drawn),-1.08
9,CCOc1ccc2nc(N3CCCC(C(=O)N4CCc5ccccc5C4)C3)sc2c1 (stereo not drawn),1.8
10,COc1ccc(N2C(C(C)=O)=NN(c3ccccc3)C2c2cccs2)cc1 (stereo not drawn),-1.32
11,Cc1cc(C)nc(SCc2nnc(SCC(N)=O)n2CCc2ccccc2)n1,2.5
12,O=C(Nc1ccccc1)Nc1ccc(Br)c(Cl)c1,-4.71
13,CCOC(=O)c1c(N)sc2c1CCN(C)C2,-2.48
14,COc1cc(OC)c(OC)cc1CN1CCSCC1,-4.61
15,COc1ccc(C2=NN(C(=O)CCC(=O)O)C(c3ccc(C)cc3)C2)cc1 (stereo not drawn),-8.16
16,CC1(c2ccc3ccccc3c2)C(=O)c2ccccc2C1=O,1.26
17,CC1(C)CC(=O)C2=C(C1)OC(N)=C(C#N)C2c1ccc(F)cc1F (stereo not drawn),-2.51
18,C=CCNC1=C(Cl)C(=O)N(c2ccccc2Cl)C1=O,4
19,Cc1cc(OC(C)c2nc(-c3nonc3N)no2)ccc1Cl (stereo not drawn),3.17
20,CNCCc1c(-c2ccccc2)n(-c2ccccc2)c2ccccc12,7.96
21,COc1ccc2nc(NC(=O)C3CCCN3S(=O)(=O)c3cccc4nsnc34)sc2c1 (stereo not drawn),4.54
22,COc1ccc(C2=NOC(C(=O)N3CCCCC3C)C2)cc1 (stereo not drawn),9.05
23,COc1ccc(C(=O)Nc2cc3c(ccc4ccccc43)oc2=O)cc1OC,0.997
24,O=C(NCC1CCCO1)c1ccccc1Br (stereo not drawn),6.6
25,CCCCNc1nc(OC(C(F)(F)F)C(F)(F)F)nc(N2CCNCC2)n1,12

row,SMILES,% Inhibition @ 10 uM [%]
1,COCCn1c(SCC(=O)Nc2nc3ccc(C)cc3s2)nc2c(c1=O)SCC2,-1.62
2,O=C(c1ccc(CN2CCOCC2)cc1)N1CCCC1,-1.99
3,CCOc1ccc(C(=O)C2=C(O)C(=O)N(CCN(C)C)C2c2ccc(OC)cc2)c(C)c1 (stereo not drawn),-1.93
4,CC(C)(C)Nc1nc(Cl)nc(Nc2ccccc2)n1,-0.215
5,CC(C)N(Cc1nc(-c2ccccc2)no1)C(=O)C1CCCCC1,-4.94
6,Cc1ccc(Cn2ccc(NC(=O)c3ccc(F)c(F)c3)n2)cc1,-12.1
7,COc1cccc(C2=N/C(=C\c3cccc(Cl)c3Cl)C(=O)O2)c1,6.2
8,COc1ccccc1-c1cc(C(=O)Nc2cccnc2Cl)no1,2.01
9,COc1ccc(CNC2=NC(=O)CC(C(=O)Nc3ccc(Cl)cc3)S2)cc1 (stereo not drawn),0.161
10,O=c1c2cc(-c3ccccc3)sc2nnn1CCOc1ccccc1,5.54
11,COc1ccc(N2CCN(S(=O)(=O)c3ccc(OC)c(Cl)c3Cl)CC2)cc1,2.42
12,CCOc1cc2c(cc1OCC)C(c1ccc(O)cc1)NCC2 (stereo not drawn),2.02
13,O=C(CNC(=S)N(CCCN1CCOCC1)Cc1cccs1)NCc1ccc(F)cc1,-7.43
14,CCOC(=O)N1CCN(c2c(NCCc3cccc(C)c3)c(=O)c2=O)CC1,-1.44
15,CC[C@H](C)[C@H](NC(=O)c1cccc(F)c1)C(=O)N[C@@H](CCc1ccccc1)C(=O)COCc1ccccc1,-2.35
16,COc1ccc(CCNC(=O)c2ccc(C(C)C)cc2)cc1,4.81
17,Nc1nc(C(=O)O)nn1C12CC3CC(CC(C3)C1)C2,-0.185
18,CC(=O)N1CC2(c3ccccc3)CN(C(C)=O)CC(c3ccccc3)(C1)C2=O,11.5
19,Cc1ccc(OCC(=O)Nc2ccc(F)cc2F)cc1,1.04
20,NC(=O)c1c(NC(=O)Cn2nc(C(F)(F)F)cc2C2CC2)sc2c1CCCC2,2.4
21,Cc1ccc(C)c(CN2CCC(O)(c3ccc(Cl)cc3)CC2)c1,4.68
22,CC(NC(=O)C1CCN(c2nc3cc(Cl)ccc3s2)CC1)c1ccccc1 (stereo not drawn),2.79
23,COc1ccc2[nH]c3c(=O)n(N)c(=S)[nH]c3c2c1,-3.85
24,CC1=C(C(=O)Nc2cccc(C)c2C)C(c2ccc(Br)cc2)NC(=O)N1 (stereo not drawn),-2.6
25,COC(=O)c1c(NC(=O)c2nc(S(=O)(=O)Cc3ccccc3)ncc2Cl)sc2c1CCC2,-2.71

row,SMILES,% Inhibition @ 10 uM [%]
1,CC(C)CC(C(=O)NCC#N)c1cccc(-c2ccc(-c3ccno3)cc2)c1 (stereo not drawn),1.7
2,COc1ccc(C2=NN(C(=O)CSc3nncn3C)C(c3cccc(OC)c3OC)C2)cc1 (stereo not drawn),0.279
3,O=C(NCc1ccccc1)N1CCN2CCCCC2C1 (stereo not drawn),-6.13
4,O=C(c1ccc(C(=O)N2CCCCCC2)cc1)N1CCCCCC1,3.32
5,CC(=O)Nc1nonc1NC(=O)c1sc2ccccc2c1Cl,-4.11
6,COCCCn1c(-c2ccc(F)cc2)cn2c3c(=O)n(C)c(=O)n(C)c3nc12,3.26
7,O=C(NCc1ccccc1)c1ccc2c(c1)sc1nc(-c3ccccc3)cn12,-0.361
8,Cc1cc(C(=O)N2CCN(C(=O)c3ccco3)CC2)c2c(C)nn(-c3ccccc3)c2n1,5.13
9,COc1ccc(Cn2ccc3nc(C)c(C(=O)NCc4ccco4)cc3c2=O)cc1,-3.04
10,O=C(CSc1nccc(O)n1)Nc1nonc1-n1cccc1,-4.49
11,CCN1CCN(Cc2nc3c(c(=O)n(C)c(=O)n3C)n2CCOC)CC1,-1.43
12,COc1cccc(CNC(=O)c2cnn3c(C(F)(F)F)cc(-c4cccs4)nc23)c1,-2.36
13,CCOc1ccc(C2=CC(c3ccccc3OC(F)F)n3ncnc3N2)cc1Cl (stereo not drawn),3.32
14,Cc1ccc2sc(-c3ccc(NC(=O)c4ccc([N+](=O)[O-])cc4)cc3)nc2c1,-0.546
15,Cc1nnc(SCC(=O)NCCc2ccccc2)c2cc3sccc3n12,-9.51
16,COc1cc2ncc(C(=O)c3ccc(C)c(C)c3)c(N3CCOCC3)c2cc1OC,-5.03
17,CCCc1[nH]nc2c1C(c1cccc(Br)c1)C(C#N)=C(N)O2 (stereo not drawn),1.82
18,CCCCOc1ccc(/C=c2\sc3ncnn3c2=O)cc1,0.273
19,Cc1ccc(Cl)cc1N1CCN(C(=O)c2c(F)cccc2F)CC1,0.528
20,COc1ccccc1Nc1nc(N)nc(CSc2ncccn2)n1,-0.519
21,Cc1cc2nc(NC(=O)c3ccco3)sc2cc1C,-4.02
22,O=C(NCc1ccccn1)c1ccc(Br)cc1,0.937
23,CC(C)OCCCn1c(=O)c2ccccc2n2c(-c3ccc(C(F)(F)F)cc3)nnc12,-1.72
24,CCN(CC)CCNC(=O)CCc1nnc2n(CCc3ccccc3)c(=O)c3ccccc3n12,-4.21
